Changes are numbered by the printed parent chain; changes in the protein carry UniProt numbers. The list shows a part of the results.
T1: RBFOX1 RRM (Homo sapiens, UniProt Q9NWB1 109-208)
T1 sequence: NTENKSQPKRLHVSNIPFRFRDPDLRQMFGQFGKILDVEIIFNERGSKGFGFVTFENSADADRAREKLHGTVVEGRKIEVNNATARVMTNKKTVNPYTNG

B1: GCUUGGC (DNA:RNA)
RNA: GGGAGACCGGAAUUCAGAUUGUCCGCUUGGCUUAAAUCCCGUCGUAGCCACCA
DNA 1: CAATCTGAATTCCGGTCTCCC
DNA 2: TGGTGGCTACGACGGGATT
B2: GGUGGGU (DNA:RNA)
RNA: B1 RNA with C26G, U28G, C31U
DNA 1: CAATCTGAATTCCGGTCTCCC
DNA 2: TGGTGGCTACGACGGGATT
B3: UGUUAAU (DNA:RNA)
RNA: B1 RNA with G25U, C26G, G29A, G30A, C31U
DNA 1: CAATCTGAATTCCGGTCTCCC
DNA 2: TGGTGGCTACGACGGGATT
B4: CGUACUC (DNA:RNA)
RNA: B1 RNA with G25C, C26G, U28A, G29C, G30U
DNA 1: CAATCTGAATTCCGGTCTCCC
DNA 2: TGGTGGCTACGACGGGATT
B5: ACACCUA (DNA:RNA)
RNA: B1 RNA with G25A, U27A, U28C, G29C, G30U, C31A
DNA 1: CAATCTGAATTCCGGTCTCCC
DNA 2: TGGTGGCTACGACGGGATT
B6: CGAAGGG (DNA:RNA)
RNA: B1 RNA with G25C, C26G, U27A, U28A, C31G
DNA 1: CAATCTGAATTCCGGTCTCCC
DNA 2: TGGTGGCTACGACGGGATT
B7: CCCAUGA (DNA:RNA)
RNA: B1 RNA with G25C, U27C, U28A, G29U, C31A
DNA 1: CAATCTGAATTCCGGTCTCCC
DNA 2: TGGTGGCTACGACGGGATT
B8: CCCUUAC (DNA:RNA)
RNA: B1 RNA with G25C, U27C, G29U, G30A
DNA 1: CAATCTGAATTCCGGTCTCCC
DNA 2: TGGTGGCTACGACGGGATT
B9: AUUACAG (DNA:RNA)
RNA: B1 RNA with G25A, C26U, U28A, G29C, G30A, C31G
DNA 1: CAATCTGAATTCCGGTCTCCC
DNA 2: TGGTGGCTACGACGGGATT
B10: GGACCUC (DNA:RNA)
RNA: B1 RNA with C26G, U27A, U28C, G29C, G30U
DNA 1: CAATCTGAATTCCGGTCTCCC
DNA 2: TGGTGGCTACGACGGGATT
B11: AUACAAA (DNA:RNA)
RNA: GGGAGACCGGAAUUCAGAUUGUCCAUACAAAUUAAAUCCCGUCGUAGCCACCA
DNA 1: CAATCTGAATTCCGGTCTCCC
DNA 2: TGGTGGCTACGACGGGATT
B12: GCGUACA (DNA:RNA)
RNA: B1 RNA with U27G, G29A, G30C, C31A
DNA 1: CAATCTGAATTCCGGTCTCCC
DNA 2: TGGTGGCTACGACGGGATT
B13: GCCUGGU (DNA:RNA)
RNA: B1 RNA with U27C, C31U
DNA 1: CAATCTGAATTCCGGTCTCCC
DNA 2: TGGTGGCTACGACGGGATT
B14: ACCCUUU (DNA:RNA)
RNA: B11 RNA with U26C, A27C, A29U, A30U, A31U
DNA 1: CAATCTGAATTCCGGTCTCCC
DNA 2: TGGTGGCTACGACGGGATT
B15: AUCGCGG (DNA:RNA)
RNA: B11 RNA with A27C, C28G, A29C, A30G, A31G
DNA 1: CAATCTGAATTCCGGTCTCCC
DNA 2: TGGTGGCTACGACGGGATT
B16: AUGCGCA (DNA:RNA)
RNA: B11 RNA with A27G, A29G, A30C
DNA 1: CAATCTGAATTCCGGTCTCCC
DNA 2: TGGTGGCTACGACGGGATT
B17: CCCCAUG (DNA:RNA)
RNA: B11 RNA with A25C, U26C, A27C, A30U, A31G
DNA 1: CAATCTGAATTCCGGTCTCCC
DNA 2: TGGTGGCTACGACGGGATT
B18: CGGGAGA (DNA:RNA)
RNA: B11 RNA with A25C, U26G, A27G, C28G, A30G
DNA 1: CAATCTGAATTCCGGTCTCCC
DNA 2: TGGTGGCTACGACGGGATT
B19: CAAAGCA (DNA:RNA)
RNA: B11 RNA with A25C, U26A, C28A, A29G, A30C
DNA 1: CAATCTGAATTCCGGTCTCCC
DNA 2: TGGTGGCTACGACGGGATT
B20: AAACUAC (DNA:RNA)
RNA: B11 RNA with U26A, A29U, A31C
DNA 1: CAATCTGAATTCCGGTCTCCC
DNA 2: TGGTGGCTACGACGGGATT
B21: UUCUGGG (DNA:RNA)
RNA: B1 RNA with G25U, C26U, U27C, C31G
DNA 1: CAATCTGAATTCCGGTCTCCC
DNA 2: TGGTGGCTACGACGGGATT
B22: GGAACUU (DNA:RNA)
RNA: B11 RNA with A25G, U26G, C28A, A29C, A30U, A31U
DNA 1: CAATCTGAATTCCGGTCTCCC
DNA 2: TGGTGGCTACGACGGGATT
B23: CGCCAGC (DNA:RNA)
RNA: B11 RNA with A25C, U26G, A27C, A30G, A31C
DNA 1: CAATCTGAATTCCGGTCTCCC
DNA 2: TGGTGGCTACGACGGGATT
B24: GACGUCU (DNA:RNA)
RNA: B1 RNA with C26A, U27C, U28G, G29U, G30C, C31U
DNA 1: CAATCTGAATTCCGGTCTCCC
DNA 2: TGGTGGCTACGACGGGATT
B25: GAGGCAU (DNA:RNA)
RNA: B11 RNA with A25G, U26A, A27G, C28G, A29C, A31U
DNA 1: CAATCTGAATTCCGGTCTCCC
DNA 2: TGGTGGCTACGACGGGATT
B26: CGCCGCA (DNA:RNA)
RNA: B11 RNA with A25C, U26G, A27C, A29G, A30C
DNA 1: CAATCTGAATTCCGGTCTCCC
DNA 2: TGGTGGCTACGACGGGATT
B27: CUUUUUA (DNA:RNA)
RNA: B11 RNA with A25C, A27U, C28U, A29U, A30U
DNA 1: CAATCTGAATTCCGGTCTCCC
DNA 2: TGGTGGCTACGACGGGATT
B28: CAUUGGA (DNA:RNA)
RNA: B1 RNA with G25C, C26A, C31A
DNA 1: CAATCTGAATTCCGGTCTCCC
DNA 2: TGGTGGCTACGACGGGATT
B29: AUGUGAU (DNA:RNA)
RNA: B11 RNA with A27G, C28U, A29G, A31U
DNA 1: CAATCTGAATTCCGGTCTCCC
DNA 2: TGGTGGCTACGACGGGATT
B30: UCUAAUA (DNA:RNA)
RNA: B11 RNA with A25U, U26C, A27U, C28A, A30U
DNA 1: CAATCTGAATTCCGGTCTCCC
DNA 2: TGGTGGCTACGACGGGATT
B31: UAGGCCG (DNA:RNA)
RNA: GGGAGACCGGAAUUCAGAUUGUCCUAGGCCGUUAAAUCCCGUCGUAGCCACCA
DNA 1: CAATCTGAATTCCGGTCTCCC
DNA 2: TGGTGGCTACGACGGGATT

Biological target: T1, RBFOX1 RRM
Test: EMSA; HiTS-Eq, 1 nM pool, 10 min; buffer printed only for the single-RNA assays: 10 mM Tris pH 7.5, 150 mM NaCl, 3.4 mM EDTA, 0.001% NP-40, 30 C
Conditions: tags: His6 N-terminal (pET28a); label: 5' 32P
Procedure, shortened: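 Purified RbFox RRM, wild type or mutant, was incubated for 10 min in 50 µL with 1 nM of a 5′-radiolabelled RNA pool carrying 7 randomized nucleotides, whose flanks were annealed to DNA oligonucleotides, over a series of increasing protein concentrations. Unbound RNA was resolved on 8% native PAGE, cut out, reverse-transcribed, barcoded by PCR and sequenced on an Illumina HiSeq 2500. Relative association constants were derived from changes in read counts for each RNA species versus the control reaction and normalised to the cognate motif.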

Binder	binding signal
B1	0.0234 KA relative to UGCAUGU
B2	0.0186 KA relative to UGCAUGU
B3	0.0111 KA relative to UGCAUGU
B4	0.00584 KA relative to UGCAUGU
B5	0.0018 KA relative to UGCAUGU
B6	0.00457 KA relative to UGCAUGU
B7	0.0135 KA relative to UGCAUGU
B8	0.00236 KA relative to UGCAUGU
B9	0.0056 KA relative to UGCAUGU
B10	0.00453 KA relative to UGCAUGU
B11	0.00265 KA relative to UGCAUGU
B12	0.00634 KA relative to UGCAUGU
B13	0.0305 KA relative to UGCAUGU
B14	0.00524 KA relative to UGCAUGU
B15	0.00774 KA relative to UGCAUGU
B16	0.0159 KA relative to UGCAUGU

Binder	binding signal
B17	0.0201 KA relative to UGCAUGU
B18	0.0222 KA relative to UGCAUGU
B19	0.00458 KA relative to UGCAUGU
B20	0.00173 KA relative to UGCAUGU
B21	0.00549 KA relative to UGCAUGU
B22	0.0138 KA relative to UGCAUGU
B23	0.00891 KA relative to UGCAUGU
B24	0.0143 KA relative to UGCAUGU
B25	0.0219 KA relative to UGCAUGU
B26	0.0104 KA relative to UGCAUGU
B27	0.00566 KA relative to UGCAUGU
B28	0.00454 KA relative to UGCAUGU
B29	0.0107 KA relative to UGCAUGU
B30	0.00235 KA relative to UGCAUGU
B31	0.015 KA relative to UGCAUGU
